Experimental data reported in PubChem BioAssay AID1347120 (National Center for Advancing Translational Sciences (NCATS), 2019).
Screen size: about 390,000 compounds; about 930 (0.24%) were called active. Inconclusive means that the source gave no clear call. Such entries were picked first, then a sample of the others. Calls follow the shape of the dose curve; as a rule, active = well fitted activation curve with a large enough effect; inconclusive = small, poorly fitted or top-dose-only effect; inactive = no such curve, though single readings can be large or run the other way. A potency beside an inconclusive call is a rough fit, not a confirmed value.

Test: qHTS for Suppressors of FUS Proteinopathy: Primary screen using FUS-linked yeast assay; also: nearly all actives have a fitted effect of over 55% in size;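 as to growth rescue (activation): plate controls were DMSO vehicle for no effect and reference control for full effect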
Conditions: S. cerevisiae FUS-expressing, OD600, 24 h; Potency: growth rescue; growth rescue (activation): at 76.6 µM (top of the series)
Summary of the method: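 FUS-expressing yeast, raffinose-pregrown, induced in 2% galactose minimal medium at OD 0.005; compounds in a dilution series, 24hr at 30C. Growth restoration read as absorbance at 600 nm. CP55940 positive control, DMSO negative.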
Potency is read from the fitted curve at half-maximal effect; tags tell the direction and shape of the fitted curve.

Compound	growth rescue (activation)	Potency
Cc1cc(C(=O)NC2CCCc3ccccc32)ccc1[N+](=O)[O-] (stereo unspecified)	inactive: 15.9%	
COc1cccc(NC(=O)CN(C)C(=O)c2cc(-c3ccc(C)o3)nc3ccccc23)c1	inactive: 37.1%	
COc1ccc(S(=O)(=O)N2CCN(Cc3ccccc3OC)CC2)cc1	inactive: -14%	
FC(F)(F)c1cccc(CNc2ncccc2-c2nc3cc(Cl)ccc3o2)c1	inactive: 7.99%	
NC(=O)C1CCN(C(=O)Cn2c(-c3cccs3)cc3ccccc32)CC1	inactive: 7.38%	
CCn1c(=S)[nH]c2nc3c(cc2c1=O)CCCC3	inactive: 10.3%	
CCOC(=O)C1=C[C@@H](c2ccccc2)N(S(=O)(=O)c2ccc(C)cc2)[C@H]1c1ccccc1Cl		inconclusive: 39.8 µM [activator, single point]
CC(NC(=O)c1ccc(F)cc1)c1nc2ccccc2n1Cc1ccccc1F (stereo unspecified)		inconclusive: 39.8 µM [activator, partial curve, poor fit]
CCCCN(c1ccccc1)S(=O)(=O)c1ccc2c(c1)CC(C)N2C(=O)C1CC1 (stereo unspecified)		inconclusive: 25.1 µM [activator, partial curve]
Cc1ccc(C)c(N2CCN(C(=O)c3ccc4nc(N5CCOCC5)sc4c3)CC2)c1		inconclusive: 50.1 µM [activator, partial curve, poor fit]
Cc1ccc2c(c1)[C@H]1[C@H](CO2)[C@H](c2ccccc2)[C@]2(C)C(=O)Nc3cc(Cl)ccc3C(=O)N12		inconclusive: 35.5 µM [activator, single point]
CCCOc1ccc(C2c3c(oc4cc(C)c(C)cc4c3=O)C(=O)N2CCCN2CCOCC2)cc1 (stereo unspecified)		inconclusive: 15.8 µM [activator, partial curve]
Cc1cc(N/N=C/c2ccccc2Cl)nc(NCc2ccccc2)n1	inactive: 15.9%	
O=C(CCCn1c(=O)c2sccc2n(Cc2cccc(Cl)c2)c1=O)NCc1ccc2c(c1)OCO2		inconclusive: 28.2 µM [activator, single point]
O=C(Nc1ccc2oc(-c3ccccc3F)nc2c1)c1ccc2c(c1)OCCO2		inconclusive: 15.8 µM [activator, partial curve, poor fit]
COc1ccc(NC(=O)c2cccc3c2C(=O)c2ccc(-c4cnc(OC)nc4)cc2S3(=O)=O)cc1		inconclusive: 15.8 µM [activator, partial curve, poor fit]
C=CCc1c(OC)ccc2c1c(S(=O)(=O)c1ccc(C)cc1)cn2COC		inconclusive: 31.6 µM [activator, single point]
Cc1ccc(C(=O)c2c(NC(=O)CSc3nnc(N)s3)sc3c2CCCC3)cc1		inconclusive: 50.1 µM [activator, single point]
CN(C(=O)c1ccc(NC(=O)Cc2cccc(NC(=O)C3CCN(C(=O)C4CCCC4)CC3)c2)cc1)C1CCCC1		inconclusive: 28.2 µM [activator, single point]
CCOc1cc(C2c3c(-c4ccccc4O)n[nH]c3C(=O)N2Cc2cccnc2)ccc1O (stereo unspecified)	inactive: 6.33%	
O=c1c2ccccc2nnn1Cc1ccccn1	inactive: -2.62%	

Compound	growth rescue (activation)	Potency
Cc1ccc(-c2nc3ncccc3o2)cc1NC(=O)CC(C)C	inactive: 3.19%	
CC1(C)c2[nH]c3ccccc3c2C[C@@H]2C(=O)N(Cc3ccccc3)C(=O)N21		inconclusive: 50.1 µM [activator, single point]
O=c1[nH]c(=O)n(Cc2ccco2)c2c1C(C(F)(F)F)(C(F)(F)F)N=C(c1ccc(F)cc1)N2	inactive: 6.69%	
COc1cccc(-c2nc(CS(=O)(=O)CC(=O)NCC(C)c3ccccc3)c(C)o2)c1 (stereo unspecified)		inconclusive: 31.6 µM [activator, partial curve]
CCc1ccc(NC(=O)Nc2cccs2)cc1		inconclusive: 25.1 µM [activator, single point]
CCOc1cc(C(c2c(C)[nH][nH]c2=O)c2c(C)[nH][nH]c2=O)ccc1OCc1ccc([N+](=O)[O-])cc1		inconclusive: 39.8 µM [activator, single point]
COc1ccc(CNC(=O)/C=C/c2ccc(S(=O)(=O)NCc3ccco3)cc2)cc1OC		inconclusive: 14.1 µM [activator, partial curve, poor fit]
COc1ccc(N=C2NN=C(c3c(C)[nH]c4ccccc34)CS2)cc1		inconclusive: 22.4 µM [activator, partial curve, poor fit]
Oc1ccc(Cl)cc1/C=C/c1ccc2cccc(O)c2n1		inconclusive: 22.4 µM [activator, single point]
CCCCC(=Nc1ccc(N)cc1)C1=C(O)C(C(=O)OC)C(C)(C)CC1=O (stereo unspecified)		inconclusive: 8.91 µM [activator, partial curve, poor fit]
COc1ccc(Cl)cc1N1C(=O)/C(=C\c2sccc2C)N=C1SCC(=O)NC1CC1		inconclusive: 56.2 µM [activator, partial curve, poor fit]
Nc1cc(=O)nc(SCC(=O)N(C2CCCCC2)C2CCCCC2)n1-c1ccccc1		active: 28.2 µM
COCCn1c(-c2ccc(OC)cc2)c(-c2ccc(OC)cc2)oc1=O		inconclusive: 6.31 µM [activator, full curve]
Cc1ccc2c(c1)nnn2C1CCN(S(=O)(=O)c2cccc(S(=O)(=O)N(C)C)c2)CC1		inconclusive: 15.8 µM [activator, single point]
O=C(Nc1nccs1)C1CCN(S(=O)(=O)c2ccc(F)cc2)CC1	inactive: 10%	
O=C(NCCN1C(=O)CCC1=O)c1ccncc1		inconclusive: 7.94 µM [activator, partial curve, poor fit]
CCOc1ccc(CCNC(=O)c2cn(CC)c3ccc(S(=O)(=O)N4CCCCCC4)cc3c2=O)cc1OCC		inconclusive: 2.82 µM [activator, full curve]
CSc1ccc(CCNC(=O)CSc2ccsc2[N+](=O)[O-])cc1		inconclusive: 50.1 µM [activator, partial curve, poor fit]
COc1cccc(-c2cc(C(=O)N/N=C/c3ccco3)c3ccccc3n2)c1		inconclusive: 31.6 µM [activator, partial curve]
CC1C(=O)N(Cc2cn(CC3CCCCC3)nn2)CCS(=O)(=O)N1Cc1ccc(-c2cccc(N(C)C)c2)cc1 (stereo unspecified)		inconclusive: 28.2 µM [activator, single point]
COc1ccc(OC)c(NS(=O)(=O)c2ccc3[nH]c4c(c3c2)CCCCC4)c1		inconclusive: 39.8 µM [activator, single point]

Compound	growth rescue (activation)	Potency
CCCCN1CC(c2nc3ccccc3n2CCCCOc2ccc(C)c(C)c2)CC1=O (stereo unspecified)		inconclusive: 22.4 µM [activator, single point]
COC(=O)[C@H](Cc1c[nH]c2ccccc12)NC(=O)NCc1ccccc1	inactive: 12.5%	
COc1ccc(-n2c(=O)c3c4c(sc3n(CC(=O)Nc3cc(C)[nH]n3)c2=O)CCCC4)c(OC)c1		inconclusive: 39.8 µM [activator, partial curve, poor fit]
COc1cccc(N2CC(C(=O)Nc3nnc(SCCC4OCCO4)s3)CC2=O)c1 (stereo unspecified)		inconclusive: 5.62 µM [activator, partial curve]
CCCCn1c(N)c(N(CCOC)C(=O)COC(=O)COc2cc(C)c(Cl)cc2C(C)C)c(=O)[nH]c1=O		inconclusive: 11.2 µM [activator, partial curve, poor fit]
C[C@H](CO)N1C[C@H](C)[C@@H](CN(C)S(=O)(=O)c2ccccc2)Oc2c(NC(=O)Nc3ccc4c(c3)OCO4)cccc2C1=O		inconclusive: 15.8 µM [activator, partial curve, poor fit]
CC(=O)c1ccc(N(CC(=O)NC2CCCC2)C(=O)CNC(=O)c2cccs2)cc1	inactive: 12.9%	
Cc1ccc(S(=O)(=O)N2CCC(=O)N(C(COCc3cccc(C(F)(F)F)c3)C(C)C)CC2)cc1 (stereo unspecified)		inconclusive: 7.08 µM [activator, partial curve]
COc1ccc(C2=NOC(C(=O)Nc3cccnc3)C2)cc1 (stereo unspecified)	inconclusive: 49.9% [activator]	
COc1ccc(S[C@]2(C(=O)N3CCN(c4ncccn4)CC3)CC(=O)N(c3ccccc3)[C@@H]2c2ccc(OC)cc2)cc1		inconclusive: 15.8 µM [activator, partial curve, poor fit]
O=C(N/N=C/c1cc(Br)ccc1OC(=O)c1ccc(Br)cc1)c1ccncc1	inactive: 15.4%	
CCOC(=O)c1ccc(N2C(=O)c3n[nH]c(-c4ccco4)c3C2c2ccc(O)c(OC)c2)cc1 (stereo unspecified)		inconclusive: 50.1 µM [activator, single point]
COc1ccc(-n2nc(C(=O)N3CCN(c4cccc(C)c4C)CC3)c3c4ccccc4n(C)c3c2=O)cc1	inactive: -12.4%	
O=C(CSCc1nc2cccnc2n1C1CCCCC1)NCc1cccc(Cl)c1		inconclusive: 50.1 µM [activator, single point]
Cc1cccc(N=C2NC(=O)/C(=C/c3cn(C)c4ccccc34)S2)c1		inconclusive: 35.5 µM [activator, single point]
COc1cc(OC)c(NS(=O)(=O)c2cc(-c3cnc(C)o3)ccc2OC)cc1Cl		inconclusive: 28.2 µM [activator, single point]
CCc1nc2ccc(C(=O)Nc3ccc(C(N)=O)cc3)cn2c1N(C)CCC(C)C		inconclusive: 28.2 µM [activator, single point]
N#Cc1c(N(CCO)CCO)nc(N)c2c(N)nc3c(c12)CC(=O)N3CC1CCCO1 (stereo unspecified)		inconclusive: 28.2 µM [activator, partial curve, poor fit]
Nc1c(Cl)cc(-c2csc(NCCc3nc4cc(Cl)c(Cl)cc4n3CCCO)n2)cc1Cl		inconclusive: 31.6 µM [activator, single point]
